This passage reports binding signal (log fluorescence intensity) results from paper PMC6602471.

This is one part of the list. At the low end of the ranking, values are background and their order means little.

The assay addresses T1, ELK1 (UniProt P19419).
T1 sequence: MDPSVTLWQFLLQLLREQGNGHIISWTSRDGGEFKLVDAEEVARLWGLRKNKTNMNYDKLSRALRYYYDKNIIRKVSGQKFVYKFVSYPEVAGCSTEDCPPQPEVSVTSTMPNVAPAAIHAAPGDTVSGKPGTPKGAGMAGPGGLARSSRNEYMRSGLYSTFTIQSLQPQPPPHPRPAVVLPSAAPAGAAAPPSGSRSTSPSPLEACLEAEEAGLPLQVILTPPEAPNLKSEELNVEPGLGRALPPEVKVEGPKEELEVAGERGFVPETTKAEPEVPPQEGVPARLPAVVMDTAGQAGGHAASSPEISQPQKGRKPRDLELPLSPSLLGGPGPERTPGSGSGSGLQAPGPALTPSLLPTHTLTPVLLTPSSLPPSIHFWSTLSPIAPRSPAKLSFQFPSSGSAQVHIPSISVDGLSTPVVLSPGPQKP
Briefly: custom PBM. The following applies: custom protein-binding microarray; buffer, salt, pH and temperature not stated; high values mean tight binding; double strand, one strand shown.
Take “CTGGGACTTGACCCAGCTCTGCCACGTGGGTCGTTTGTCTTGATTCGCTTGACGCTGCTG”: the binding signal (log fluorescence intensity) is 8.97.

As for “CACAATTTTTACAGTAATGCAGCACGCGTAACTCCTGTCTTGATTCGCTTGACGCTGCTG”, the binding signal (log fluorescence intensity) is 8.91.

As to “CACAATTTTTCCAGTAATGTAGCACGCGTAACTCCTGTCTTGATTCGCTTGACGCTGCTG”, the binding signal (log fluorescence intensity) is 8.84.

For the sequence “CGGAAGTGTCGTAAACGTCGGACATCCGGTTCTTCTGTCTTGATTCGCTTGACGCTGCTG”, the binding signal (log fluorescence intensity) turned out to be 12.4.

“TACTGACTTATATATGCGAATGCACATGAATAGATCGTCTTGATTCGCTTGACGCTGCTG”: the binding signal (log fluorescence intensity) was determined as 8.94.

With “TCCGGCTACCAGCTCCACCCACTTCAGGCCTTCTAGGTCTTGATTCGCTTGACGCTGCTG”, the binding signal (log fluorescence intensity) came to 8.85.

With “GATTAATTTCTGCCCTTATTCGCACGTGCCATAACAGTCTTGATTCGCTTGACGCTGCTG”, the binding signal (log fluorescence intensity) came out at 8.92.

For “CTGGGACTTGACCCAACTCTGCCGCGTGGGTCGTTTGTCTTGATTCGCTTGACGCTGCTG”, the binding signal (log fluorescence intensity) amounted to 8.91.

For “CGGAAGTGTCGTAAACGTCGGATATGCGGTTCTTCTGTCTTGATTCGCTTGACGCTGCTG”, the binding signal (log fluorescence intensity) is 9.16.

For “GCTGCTGCGTTGCATACCCCACCGGATGTGACCCCGGTCTTGATTCGCTTGACGCTGCTG”, the binding signal (log fluorescence intensity) was found to be 10.1.

For the sequence “TAAAGCGAAGACGGTTGTGGTAGTTCCGGGTATTAAGTCTTGATTCGCTTGACGCTGCTG”, the binding signal (log fluorescence intensity) worked out at 11.1.

Regarding “TCCGGCTACCAGCTCCACCCACTTCAGGCCATGTAGGTCTTGATTCGCTTGACGCTGCTG”, the binding signal (log fluorescence intensity) came to 8.89.

In the case of “TACTGACTTATATATGCGAATGCACATGAATAGGCCGTCTTGATTCGCTTGACGCTGCTG”, the binding signal (log fluorescence intensity) was 8.83.

With “TCCGTCTACCAGCTCCACCCACTTCAGGCCTTGTAGGTCTTGATTCGCTTGACGCTGCTG”, the binding signal (log fluorescence intensity) stood at 8.79.

For the sequence “GATTGATTTCTGCCCTTATTCGCACGTGCCATAACAGTCTTGATTCGCTTGACGCTGCTG”, the binding signal (log fluorescence intensity) came out at 8.95.

“CTGGGACTTGACCCAACTCTGCCACGTGGGTCGTTTGTCTTGATTCGCTTGACGCTGCTG”: the binding signal (log fluorescence intensity) amounted to 8.87.

For “GGAAAAAGGCCCAGGGTAAAACCGGAAGTGGGCTTAGTCTTGATTCGCTTGACGCTGCTG”, the binding signal (log fluorescence intensity) is 11.

With “TAAAGGGAAGAGGGTTGTGGTAGTTCCGGGTATTAAGTCTTGATTCGCTTGACGCTGCTG”, the binding signal (log fluorescence intensity) came to 11.1.

With “GCTGCTGCGGTGCATACCCTACCGGATGTGACCCCGGTCTTGATTCGCTTGACGCTGCTG”, the binding signal (log fluorescence intensity) amounted to 10.1.

In the case of “TGTCGGGTAAGGGAATGTAGATCTCGTGAATGAAAAGTCTTGATTCGCTTGACGCTGCTG”, the binding signal (log fluorescence intensity) was found to be 8.82.

“GGAAAAAGGCCCAGGGTAACACCGGAACTGGGCTTAGTCTTGATTCGCTTGACGCTGCTG”: the binding signal (log fluorescence intensity) stood at 10.1.

Turning to “TCCGGCTACCAGCTCCACCCACTTCAGGCCTTGTAAGTCTTGATTCGCTTGACGCTGCTG”, the binding signal (log fluorescence intensity) was 8.86.

On to “TAAAGGGAAGACGGTCGTGGTAGTTCCGGGTATTAAGTCTTGATTCGCTTGACGCTGCTG”, for which the binding signal (log fluorescence intensity) stood at 11.3.

“GATTAATTTCTGCCCTTATTCTCACGTGCCATAACAGTCTTGATTCGCTTGACGCTGCTG”: the binding signal (log fluorescence intensity) turned out to be 8.84.

Turning to “CACAATTTTTACAGTAATGTCGCACGCGTAACTCCTGTCTTGATTCGCTTGACGCTGCTG”, the binding signal (log fluorescence intensity) was determined as 8.88.

Take “GACAATTTTTACAGTAATGTAGCACGCGTAACTCCTGTCTTGATTCGCTTGACGCTGCTG”: the binding signal (log fluorescence intensity) came out at 8.87.

In the case of “TACTGACTTATATATGCGAATGCACATGAATAGCCCGTCTTGATTCGCTTGACGCTGCTG”, the binding signal (log fluorescence intensity) is 8.94.

As for “TACTGACTGATATATGCGAATGCACATGAATAGACCGTCTTGATTCGCTTGACGCTGCTG”, the binding signal (log fluorescence intensity) turned out to be 9.04.

Take “GCTGCTGCGGTGCATACCCCGCCGGATGTGACCCCGGTCTTGATTCGCTTGACGCTGCTG”: the binding signal (log fluorescence intensity) turned out to be 10.5.

As for “TGTCGGGTAAGGGAATGTAGATCACGTGAAAGAAAAGTCTTGATTCGCTTGACGCTGCTG”, the binding signal (log fluorescence intensity) was determined as 8.82.

On to “GTGTATAGGATCCCATCCAACACACGTGTTGAAATGGTCTTGATTCGCTTGACGCTGCTG”, for which the binding signal (log fluorescence intensity) turned out to be 8.88.

“GGAAAAAGGCCCTGGGTAACACCGGAAGTGGGCTTAGTCTTGATTCGCTTGACGCTGCTG”: the binding signal (log fluorescence intensity) was 11.1.

“GTGTATAGGATCCCATCCTACACACGTGTTAAAATGGTCTTGATTCGCTTGACGCTGCTG”: the binding signal (log fluorescence intensity) amounted to 8.97.

Take “CTGGGACTTGACCCAACTCTGCCACGGGGGTCGTTTGTCTTGATTCGCTTGACGCTGCTG”: the binding signal (log fluorescence intensity) was found to be 8.9.

With “CTGGGACTTGACCCAACTCTGCCACGTGGGTCGATTGTCTTGATTCGCTTGACGCTGCTG”, the binding signal (log fluorescence intensity) was 9.

Consider “CGGAAGTGTCGTAAACGTCGGATATCGGGTTCTTCTGTCTTGATTCGCTTGACGCTGCTG”, for which the binding signal (log fluorescence intensity) was 9.06.

Take “GGAAAAAGGCCCAGGGTAACACCGGAAGTGGGCTGAGTCTTGATTCGCTTGACGCTGCTG”: the binding signal (log fluorescence intensity) was determined as 10.9.

As for “CTGGGGCTTGACCCAACTCTGCCACGTGGGTCGTTTGTCTTGATTCGCTTGACGCTGCTG”, the binding signal (log fluorescence intensity) amounted to 8.81.

“TACTGACTTATATATGAGAATGCACATGAATAGACCGTCTTGATTCGCTTGACGCTGCTG”: the binding signal (log fluorescence intensity) was determined as 8.84.

In the case of “GCTGCTGCGGTGCATATCCCACCGGATGTGACCCCGGTCTTGATTCGCTTGACGCTGCTG”, the binding signal (log fluorescence intensity) amounted to 10.2.

As to “GATAAATTTCTGCCCTTATTCGCACGTGCCATAACAGTCTTGATTCGCTTGACGCTGCTG”, the binding signal (log fluorescence intensity) was 8.77.
